Data from patent US20020142355A1 (BAYLOR COLLEGE OF MEDICINE, published 2002).

Target: T1, human alpha-1-antitrypsin (AAT) fused to the N-terminus of the BAP, secreted without BirA (not biotinylated) (human, UniProt P01009)
T1 construct: mature; also called AAT-BAP
Test: Western blot of TCA-precipitated culture medium, avidin-HRP probe

T1 sequence (P01009 other isoform, or with tags, fused parts or gaps): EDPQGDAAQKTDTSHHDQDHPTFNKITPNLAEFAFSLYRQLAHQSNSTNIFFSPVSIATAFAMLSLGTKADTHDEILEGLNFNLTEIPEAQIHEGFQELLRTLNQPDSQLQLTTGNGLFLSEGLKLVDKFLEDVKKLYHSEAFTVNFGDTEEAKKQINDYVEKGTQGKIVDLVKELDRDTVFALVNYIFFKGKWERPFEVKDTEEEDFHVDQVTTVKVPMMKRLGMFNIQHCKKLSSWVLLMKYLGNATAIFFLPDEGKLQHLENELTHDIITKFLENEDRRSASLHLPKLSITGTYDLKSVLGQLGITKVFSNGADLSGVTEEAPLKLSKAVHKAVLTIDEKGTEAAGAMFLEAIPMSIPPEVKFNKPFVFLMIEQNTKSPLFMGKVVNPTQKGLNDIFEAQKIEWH

B1: avidin-HRP (other, UniProt P02701 25-152, looked up)
chain: ARKCSLTGKWTNDLGSNMTIGAVNSRGEFTGTYITAVTATSNEIKESPLHGTQNTINKRTQPTFGFTVNWKFSESTTVFTGQCFIDRNGKEVLKTMWLLRSSVNDIGDDWKATRVGINIFTRLRTQKE
modifications: conjugated to HRP
notes: Bought detection reagent; also called avidin-HRP conjugate
B1: no binding.
